From patent US10299477B2 (priority 2015, dated 2019)

Test system: Colletotrichum orbiculare
Conditions: 250 ppm, sprayed 2.5 ml/pot before inoculation; evaluated 6-10 days after inoculation

Structure (SMILES) | Test H (control value class, anthracnose on cucumber)
CCn1c(-c2c(F)cc(OC)cc2F)c(-c2cccc(OC)c2Cl)ccc1=O [Compound 633] | H (H shows more than 50% of control values)
Cn1c(-c2c(F)cc(F)cc2F)c(-c2ccc(F)cc2Cl)cc(Br)c1=O [Compound 597] | H (H shows more than 50% of control values)
CCn1c(-c2c(F)cc(OC)cc2F)c(-c2cc(F)cc(F)c2Cl)cc(Br)c1=O [Compound 695] | H (H shows more than 50% of control values)
CCn1c(-c2c(F)cc(OC)cc2F)c(-c2cc(OC)cc(F)c2Cl)ccc1=O [Compound 623] | H (H shows more than 50% of control values)
CCOc1cc(F)c(-c2c(-c3cccc(OC)c3Cl)cc(Br)c(=O)n2C)c(F)c1 [Compound 670] | H (H shows more than 50% of control values)
CCn1c(-c2c(F)cc(OC)cc2F)c(-c2cccc(F)c2F)ccc1=O [Compound 588] | H (H shows more than 50% of control values)
COc1cc(F)c(-c2c(-c3cc(F)c(F)cc3F)ccc(=O)n2C)c(F)c1 [Compound 654] | H (H shows more than 50% of control values)
CCn1c(-c2c(F)cc(F)cc2F)c(-c2cccc(OC)c2Cl)ccc1=O [Compound 618] | H (H shows more than 50% of control values)
CCOc1cc(F)c(-c2c(-c3cccc(F)c3Cl)cc(Cl)c(=O)n2CC)c(F)c1 [Compound 658] | H (H shows more than 50% of control values)
CCOc1cc(F)c(-c2c(-c3ccccc3Cl)ccc(=O)n2CC)c(F)c1 [Compound 685] | H (H shows more than 50% of control values)
CCn1c(-c2c(F)cc(F)cc2F)c(-c2ccc(F)cc2Cl)cc(Cl)c1=O [Compound 577] | H (H shows more than 50% of control values)
CCn1c(-c2c(F)cc(OC)cc2F)c(-c2cccc(F)c2F)cc(C)c1=O [Compound 610] | H (H shows more than 50% of control values)
CCn1c(-c2c(F)cc(F)cc2F)c(-c2cccc(F)c2C)ccc1=O [Compound 674] | H (H shows more than 50% of control values)
CN1C(=O)CCC(c2ccccc2Cl)=C1c1c(F)cc(F)cc1F [Compound 705] | H (H shows more than 50% of control values)
CCOc1cc(F)c(-c2c(-c3ccccc3F)cc(Cl)c(=O)n2C)c(F)c1 [Compound 598] | H (H shows more than 50% of control values)
CCn1c(-c2c(F)cc(OC)cc2F)c(-c2cccc(OC)c2Cl)cc(C)c1=O [Compound 644] | H (H shows more than 50% of control values)
CCn1c(-c2c(F)cc(F)cc2F)c(-c2ccccc2Br)ccc1=O [Compound 651] | H (H shows more than 50% of control values)
CCOc1cc(F)c(-c2c(-c3ccccc3Cl)ccc(=O)n2C)c(F)c1 [Compound 730] | H (H shows more than 50% of control values)
CCn1c(-c2c(F)cc(F)cc2F)c(-c2ccc(C)cc2Cl)ccc1=O [Compound 626] | H (H shows more than 50% of control values)
CCn1c(-c2c(F)cc(OC)cc2F)c(-c2ccccc2Cl)cc(C)c1=O [Compound 701] | H (H shows more than 50% of control values)
O=c1ccc(-c2cc(F)cc(F)c2Cl)c(-c2c(F)cc(F)cc2F)n1CC(F)F [Compound 607] | H (H shows more than 50% of control values)
CCOc1cc(F)c(-c2c(-c3cccc(OC)c3Cl)cc(Cl)c(=O)n2CC)c(F)c1 [Compound 641] | H (H shows more than 50% of control values)
CCOc1cc(F)c(-c2c(-c3cccc(F)c3Cl)cc(C)c(=O)n2CC)c(F)c1 [Compound 660] | H (H shows more than 50% of control values)
CCn1c(-c2c(F)cc(F)cc2F)c(-c2ccccc2Cl)ccc1=O [Compound 715] | H (H shows more than 50% of control values)
CCn1c(-c2c(F)cc(F)cc2F)c(-c2cccc(F)c2F)cc(Cl)c1=O [Compound 566] | H (H shows more than 50% of control values)

Same assay, conditions: in vivo

Structure (SMILES) | Test H control value | Test H (control value class)
COc1cc(OC)cc(C2=C(c3c(F)cccc3Cl)N(C)C(=O)CC2)c1 [Compound 163] | L (key: H shows more than 50% of control values; L shows 50% or less of control values) | 
CCn1c(-c2c(F)cc(F)cc2F)c(-c2cc(F)ccc2F)ccc1=O [Compound 424] |  | H (key: H shows more than 50% of control values; L shows 50% or less of control values)
COc1cc(OC)c(Cl)c(-c2ccc(=O)n(CC(F)(F)F)c2-c2c(F)cc(F)cc2F)c1 [Compound 377] |  | H (key: H shows more than 50% of control values; L shows 50% or less of control values)
COc1ccc(Cl)c(-c2ccc(=O)n(CC(F)(F)F)c2-c2c(F)cccc2F)c1 [Compound 409] |  | L (key: H shows more than 50% of control values; L shows 50% or less of control values)
CCn1c(-c2c(F)cc(F)cc2F)c(-c2cccc(F)c2F)ccc1=O [Compound 558] |  | H (key: H shows more than 50% of control values; L shows 50% or less of control values)
Cn1c(-c2c(F)cc(F)cc2F)c(-c2cc(F)cc(F)c2)cc(Br)c1=O [Compound 805] |  | H (key: H shows more than 50% of control values; L shows 50% or less of control values)
COc1cc(F)c(-c2c(-c3cc(F)cc(F)c3)ccc(=O)n2C)c(F)c1 [Compound 803] |  | H (key: H shows more than 50% of control values; L shows 50% or less of control values)
CCn1c(-c2c(F)cccc2Cl)c(-c2c(Cl)c(OC)cc(OC)c2Cl)cc(Cl)c1=O [Compound 167] | L (key: H shows more than 50% of control values; L shows 50% or less of control values) | 
CCn1c(-c2c(F)cccc2F)c(-c2cc(F)cc(F)c2F)ccc1=O [Compound 438] |  | H (key: H shows more than 50% of control values; L shows 50% or less of control values)
Cn1c(-c2c(F)cc(F)cc2F)c(-c2cc(F)cc(F)c2F)ccc1=O [Compound 466] |  | H (key: H shows more than 50% of control values; L shows 50% or less of control values)
Cn1c(-c2c(F)cccc2F)c(-c2ccc(Cl)cc2F)ccc1=O [Compound 418] |  | H (key: H shows more than 50% of control values; L shows 50% or less of control values)
CCn1c(-c2c(F)cc(F)cc2F)c(-c2cc(F)cc(F)c2)ccc1=O [Compound 789] |  | H (key: H shows more than 50% of control values; L shows 50% or less of control values)
Cn1c(-c2c(F)cccc2F)c(-c2ccccc2C(F)(F)F)cc(Br)c1=O [Compound 159] | L (key: H shows more than 50% of control values; L shows 50% or less of control values) | 
Cn1c(-c2c(F)cc(F)cc2F)c(-c2cc(F)ccc2F)cc(Cl)c1=O [Compound 427] |  | H (key: H shows more than 50% of control values; L shows 50% or less of control values)
Cn1c(-c2c(F)cccc2F)c(-c2ccccc2C(F)(F)F)ccc1=O [Compound 157] | H (key: H shows more than 50% of control values; L shows 50% or less of control values) | 
Cn1c(-c2c(F)cccc2F)c(-c2ccccc2F)cc(Cl)c1=O [Compound 144] | H (key: H shows more than 50% of control values; L shows 50% or less of control values) | 
COc1cc(OC)c(Br)c(-c2ccc(=O)n(C)c2-c2c(F)cccc2Br)c1 [Compound 184] | H (key: H shows more than 50% of control values; L shows 50% or less of control values) | 
CCn1c(-c2c(F)cc(F)cc2F)c(-c2cccc(F)c2Cl)ccc1=O [Compound 486] |  | H (key: H shows more than 50% of control values; L shows 50% or less of control values)
COc1cc(F)c(-c2c(-c3ccccc3)cc(Cl)c(=O)n2C)c(F)c1 [Compound 781] |  | H (key: H shows more than 50% of control values; L shows 50% or less of control values)
CCn1c(-c2c(F)cc(OC)cc2F)c(-c2ccccc2)ccc1=O [Compound 763] |  | H (key: H shows more than 50% of control values; L shows 50% or less of control values)
CCn1c(-c2c(F)cc(F)cc2F)c(-c2cccc(O)c2Cl)cc(Cl)c1=O [Compound 806] |  | H (key: H shows more than 50% of control values; L shows 50% or less of control values)
CCn1c(-c2c(F)cc(OC)cc2F)c(-c2cc(F)ccc2Cl)cc(Cl)c1=O [Compound 386] |  | H (key: H shows more than 50% of control values; L shows 50% or less of control values)
CCn1c(-c2c(F)cc(F)cc2F)c(-c2ccccc2Cl)ccc1=O [Compound 420] |  | H (key: H shows more than 50% of control values; L shows 50% or less of control values)
COc1cc(F)c(-c2c(-c3ccc(OC)cc3Cl)ccc(=O)n2C)c(F)c1 [Compound 765] |  | H (key: H shows more than 50% of control values; L shows 50% or less of control values)
COc1cc(F)c(-c2c(-c3cc(F)cc(F)c3)cc(Cl)c(=O)n2C)c(F)c1 [Compound 807] |  | H (key: H shows more than 50% of control values; L shows 50% or less of control values)
COc1cc(F)c(-c2c(-c3ccccc3Cl)cc(Cl)c(=O)n2C)c(F)c1 [Compound 435] |  | H (key: H shows more than 50% of control values; L shows 50% or less of control values)
COc1ccc(-c2ccc(=O)n(C)c2-c2c(F)cc(F)cc2F)c(Cl)c1 [Compound 756] |  | H (key: H shows more than 50% of control values; L shows 50% or less of control values)
O=c1c(Cl)cc(-c2c(F)cccc2Cl)c(-c2c(F)cccc2F)n1CC(F)F [Compound 407] |  | H (key: H shows more than 50% of control values; L shows 50% or less of control values)
Cn1c(-c2c(F)cc(F)cc2F)c(-c2ccccc2)ccc1=O [Compound 777] |  | H (key: H shows more than 50% of control values; L shows 50% or less of control values)
